The record followed here is the supplement of paper PMC6089552.

Hit rate of the full screen: of about 3,200 compounds, about 300 (9.4%) showed activity. The list shows a part of the results, in another mix than the full data.

This experiment concerns A673/TR/shEF. The experiment in a line: cell viability (LOESS-normalised, relative to median of negative controls) (log2 ratio); higher = more viable cells (less compound effect), active = hit call of the paper (over 3 MAD below the median). The settings on record: treatment time: 72 h. The procedure, abridged: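 A673/TR/shEF Ewing sarcoma cells (1,500 per well, 384-well plates) were grown with or without doxycycline to induce EWS-FLI1 shRNA knockdown, starting 24 h before compounds. Library compounds at two or more concentrations, with DMSO controls, were added for three days. Cell viability was read by CellTiter-Glo luminescence on an Envision reader, then LOESS-corrected per plate, divided by the median of negative controls and log2-transformed. Hits were wells at least three median absolute deviations from the median of all screened wells.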

[1] abbreviates: 0.25 µM, library screen: screen2, EWS-FLI1 expression: high (no doxycycline).
Setting [2] is: 0.25 µM, library screen: screen2, EWS-FLI1 expression: low (doxycycline-induced shRNA knockdown).
Setting [3] is: 2.5 µM, library screen: screen2, EWS-FLI1 expression: high (no doxycycline).
Where [4] appears, read: 2.5 µM, library screen: screen2, EWS-FLI1 expression: low (doxycycline-induced shRNA knockdown).
Where [5] appears, read: 0.25 µM, library screen: screen1, EWS-FLI1 expression: high (no doxycycline).
Setting [6] is: 0.25 µM, library screen: screen1, EWS-FLI1 expression: low (doxycycline-induced shRNA knockdown).
[7] abbreviates: 2.5 µM, library screen: screen1, EWS-FLI1 expression: high (no doxycycline).
Where [8] appears, read: 2.5 µM, library screen: screen1, EWS-FLI1 expression: low (doxycycline-induced shRNA knockdown).
The mark [9] stands for this setting: 0.103 µM, library screen: screen3, EWS-FLI1 expression: high (no doxycycline).
Setting [10] is: 0.103 µM, library screen: screen3, EWS-FLI1 expression: low (doxycycline-induced shRNA knockdown).
The mark [11] stands for this setting: 0.308 µM, library screen: screen3, EWS-FLI1 expression: high (no doxycycline).
Setting [12] is: 0.308 µM, library screen: screen3, EWS-FLI1 expression: low (doxycycline-induced shRNA knockdown).
Setting [13] is: 0.926 µM, library screen: screen3, EWS-FLI1 expression: high (no doxycycline).
[14] abbreviates: 0.926 µM, library screen: screen3, EWS-FLI1 expression: low (doxycycline-induced shRNA knockdown).
[15] abbreviates: 2.8 µM, library screen: screen3, EWS-FLI1 expression: high (no doxycycline).
Where [16] appears, read: 2.8 µM, library screen: screen3, EWS-FLI1 expression: low (doxycycline-induced shRNA knockdown).
The mark [17] stands for this setting: 8.3 µM, library screen: screen3, EWS-FLI1 expression: high (no doxycycline).
Where [18] appears, read: 8.3 µM, library screen: screen3, EWS-FLI1 expression: low (doxycycline-induced shRNA knockdown).
Setting [19] is: 25 µM, library screen: screen3, EWS-FLI1 expression: high (no doxycycline).
[20] abbreviates: 25 µM, library screen: screen3, EWS-FLI1 expression: low (doxycycline-induced shRNA knockdown).

Regarding `NC(=O)c1ccc([N+](=O)[O-])cc1Cl`, the “cell viability (log2)” value is inactive: 0.019 (0.025 µM, library screen: screen2, EWS-FLI1 expression: high (no doxycycline)); inactive: -0.00128 (0.025 µM, library screen: screen2, EWS-FLI1 expression: low (doxycycline-induced shRNA knockdown)); inactive: 0.119 under setting [1]; inactive: -0.0311 under setting [2]; inactive: 0.142 under setting [3]; inactive: 0.0636 under setting [4]. Moreover, the “cell viability (log2)” value reads like this: (25 µM, library screen: screen2, EWS-FLI1 expression: high (no doxycycline)) inactive: 0.166; (25 µM, library screen: screen2, EWS-FLI1 expression: low (doxycycline-induced shRNA knockdown)) inactive: 0.067.
Take `O=C1OCCN1/N=C/c1ccc([N+](=O)[O-])o1`: the “cell viability (log2)” value reads like this: under setting [5], inactive: 0.0979; under setting [6], inactive: 0.0406; under setting [7], inactive: 0.174; under setting [8], inactive: 0.0262.
Consider `O=C1NC(=O)/C(=C/c2ccc3nccnc3c2)S1`, for which the “cell viability (log2)” value reads like this: under setting [9], inactive: -0.0183; under setting [10], inactive: 0.0389; under setting [11], inactive: 0.0582; under setting [12], inactive: 0.0283; under setting [13], inactive: 0.0603; under setting [14], inactive: -0.011. In addition, the “cell viability (log2)” value is inactive: -0.0177 under setting [15]; inactive: -0.0071 under setting [16]; inactive: -0.0545 under setting [17]; inactive: -0.0391 under setting [18]; inactive: 0.0105 under setting [19]; inactive: 0.0289 under setting [20].
On to `COc1ccc(C(=O)c2ccc(O)cc2O)c(O)c1`, for which the “cell viability (log2)” value reads like this: under setting [5], inactive: 0.0224; under setting [6], inactive: 0.0701; under setting [7], inactive: 0.116; under setting [8], inactive: 0.108.
Take `c1ccc([C@H]2CN3CCSC3=N2)cc1`: the “cell viability (log2)” value was inactive: 0.0743 (0.025 µM, library screen: screen1, EWS-FLI1 expression: high (no doxycycline)); inactive: 0.0216 (0.025 µM, library screen: screen1, EWS-FLI1 expression: low (doxycycline-induced shRNA knockdown)); inactive: 0.103 under setting [9]; inactive: 0.000516 under setting [10]; inactive: 0.0991 under setting [5]; inactive: 0.0737 under setting [6]. Moreover, the “cell viability (log2)” value under setting [1] is inactive: 0.069; the “cell viability (log2)” value under setting [2] is inactive: 0.0838; the “cell viability (log2)” value under setting [11] was inactive: 0.127; the “cell viability (log2)” value under setting [12] is inactive: 0.0938; the “cell viability (log2)” value under setting [13] was inactive: 0.0997; the “cell viability (log2)” value under setting [14] was inactive: 0.0447. For the same compound, the “cell viability (log2)” value reads like this: under setting [7], active: -0.0948; under setting [8], inactive: 0.0839; under setting [3], inactive: 0.126; under setting [4], inactive: 0.0627; under setting [15], inactive: 0.136; under setting [16], inactive: 0.0913. Moreover, the “cell viability (log2)” value under setting [17] is inactive: 0.12; the “cell viability (log2)” value under setting [18] was inactive: 0.085; the “cell viability (log2)” value (25 µM, library screen: screen1, EWS-FLI1 expression: high (no doxycycline)) was active: -0.295; the “cell viability (log2)” value (25 µM, library screen: screen1, EWS-FLI1 expression: low (doxycycline-induced shRNA knockdown)) is inactive: -0.0899; the “cell viability (log2)” value under setting [19] is inactive: 0.0427; the “cell viability (log2)” value under setting [20] is inactive: 0.11.
In the case of `C=C(c1ccccc1)c1cc(O)c(OC)cc1O`, the “cell viability (log2)” value under setting [5] was inactive: -0.0139, the “cell viability (log2)” value under setting [6] is inactive: -0.00424, the “cell viability (log2)” value under setting [7] was inactive: 0.0356 and the “cell viability (log2)” value under setting [8] was inactive: 0.0603.
Turning to `CN1C[C@H]2c3ccccc3Oc3ccc(Cl)cc3[C@@H]2C1`, the “cell viability (log2)” value under setting [9] is inactive: -0.0113; the “cell viability (log2)” value under setting [10] is inactive: 0.0411; the “cell viability (log2)” value under setting [11] was inactive: 0.0363; the “cell viability (log2)” value under setting [12] was inactive: 0.0417; the “cell viability (log2)” value under setting [13] was inactive: 0.0488; the “cell viability (log2)” value under setting [14] is inactive: 0.0231. In addition, the “cell viability (log2)” value by setting is: under setting [15], inactive: 0.0964; under setting [16], inactive: 0.0456; under setting [17], inactive: 0.0132; under setting [18], inactive: 0.0603; under setting [19], inactive: 0.0424; under setting [20], inactive: 0.06.
In the case of `CCC(=O)O[C@]1(C(=O)CCl)[C@@H](C)C[C@H]2[C@@H]3CCC4=CC(=O)C=C[C@]4(C)[C@@]3(F)[C@@H](O)C[C@@]21C`, the “cell viability (log2)” value is inactive: 0.0718 under setting [5], inactive: -0.281 under setting [6], inactive: 0.136 under setting [7] and inactive: -0.439 under setting [8].
With `CN1CCN(c2c(F)cc3c(=O)c(C(=O)O)cn(CCF)c3c2F)CC1`, the “cell viability (log2)” value was inactive: 0.0583 under setting [9]; inactive: 0.0739 under setting [10]; inactive: 0.00683 under setting [11]; inactive: 0.129 under setting [12]; inactive: 0.0814 under setting [13]; inactive: 0.0787 under setting [14]. Also, the “cell viability (log2)” value was inactive: 0.0244 under setting [15]; inactive: 0.0887 under setting [16]; inactive: 0.0703 under setting [17]; inactive: 0.0799 under setting [18]; inactive: 0.17 under setting [19]; inactive: 0.0882 under setting [20].
In the case of `C[C@H](CCC(=O)O)[C@H]1CC[C@H]2[C@@H]3[C@H](O)C[C@@H]4C[C@H](O)CC[C@]4(C)[C@H]3CC[C@]12C`, the “cell viability (log2)” value by setting is: under setting [9], inactive: 0.151; under setting [10], inactive: 0.163; under setting [5], inactive: 0.126; under setting [6], inactive: 0.0802; under setting [11], inactive: 0.0927; under setting [12], inactive: 0.168. For the same compound, the “cell viability (log2)” value by setting is: under setting [13], inactive: 0.111; under setting [14], inactive: 0.101; under setting [7], inactive: 0.188; under setting [8], inactive: 0.133; under setting [15], inactive: 0.11; under setting [16], inactive: 0.118. Moreover, the “cell viability (log2)” value by setting is: under setting [17], inactive: 0.0766; under setting [18], inactive: 0.106; under setting [19], inactive: 0.0921; under setting [20], inactive: 0.144.
Regarding `CC(=O)N[C@@H]1[C@@H](O)[C@H](O)[C@@H](CO)O[C@H]1O`, the “cell viability (log2)” value is, setting by setting: under setting [5], inactive: 0.0385; under setting [6], inactive: 0.0648; under setting [7], inactive: 0.0809; under setting [8], inactive: 0.0429.
Take `NNc1nncc2ccccc12`: the “cell viability (log2)” value under setting [9] was inactive: 0.0359; the “cell viability (log2)” value under setting [10] is inactive: 0.035; the “cell viability (log2)” value under setting [5] was inactive: 0.0397; the “cell viability (log2)” value under setting [6] was inactive: -0.0283; the “cell viability (log2)” value under setting [1] was inactive: 0.173; the “cell viability (log2)” value under setting [2] was inactive: 0.0299. For the same compound, the “cell viability (log2)” value was inactive: -0.00515 under setting [11]; inactive: -0.000379 under setting [12]; inactive: 0.0532 under setting [13]; inactive: 0.0993 under setting [14]; inactive: 0.219 under setting [7]; inactive: 0.162 under setting [8]. Moreover, the “cell viability (log2)” value runs as follows: under setting [3], inactive: 0.0604; under setting [4], inactive: 0.0341; under setting [15], inactive: 0.0825; under setting [16], inactive: 0.0408; under setting [17], inactive: 0.1; under setting [18], inactive: 0.121. Besides, the “cell viability (log2)” value is inactive: 0.0768 under setting [19] and inactive: 0.0926 under setting [20].
